Reference: PubChem BioAssay (NCI)
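Cells were grown in 96-well plates and exposed to each compound for 48 hours at five concentrations; endpoints were interpolated linearly between bracketing concentrations, or set to the highest concentration if not reached. Here, GI50 denotes the concentration required for 50% inhibition of growth. At the TGI there is no net growth.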

Test system: NCI-H322M lung
Assay: DTP human tumour cell line panel, 48 h

Compound `CCCn1c(C)nc2c1C(=O)c1ccccc1C2=O` has a GI50 of 22.3 µM and a TGI of 69.7 µM.

In the case of `O=[N+]([O-])/C=C1\COCc2cc3c(cc21)OCO3`, the TGI is reported as > 100 µM.

In the case of `CCOC(=O)C(=O)Nc1c(CC)cccc1C(C)C`, the TGI is reported as > 100 µM.

For `CCCCCCCCCCCC(=O)OCCOCCOCCOCCOCCOCc1ccc(OC)cc1`, the TGI was > 100 µM.

`CCCCCC/C=C\CCCCCCCCCc1cccc(O)c1C(=O)O` was tested, and the TGI was > 100 µM.

For `O=NC1C(Cl)C2CC1C1C(Br)C(Br)CC21` (centres undefined), the TGI was > 100 µM.

With `COc1ccc(C2=C(Cl)c3cc(OC)c(OC)cc3C2Cl)cc1OC` (centres undefined) the TGI was 43.4 µM.

For `CN(C)c1ccc(/C=N\NC(=O)CSCC(=O)N/N=C/c2ccc(N(C)C)cc2)cc1`, the TGI was > 100 µM.

For `O=C1OC(CCCl)(c2ccccc2)CC1CN1CCOCC1` (centres undefined), the TGI was > 100 µM.

In the case of `COC(=O)C1C(OC(=O)c2ccccc2)CC2CCC1N2C(N)=O` (centres undefined), the TGI is reported as > 100 µM.

In the case of `O=C(/C(=C/c1ccc([N+](=O)[O-])cc1)c1ccccc1)c1ccccc1`, the GI50 is reported as 3.91 µM and the TGI is reported as > 100 µM.

`Cc1c(/C=N/NC(=S)Nc2ccccc2Cl)c(=O)n(-c2ccccc2)n1C` was tested, and the TGI was > 100 µM.

With `COc1cc2cc(C(=O)N3CC(CCl)c4ccc(O)cc43)[nH]c2c(OC)c1OC` (centres undefined) the TGI was 6.1 µM.

`N=C(N)c1ccc(N2CCCN(c3ccc(C(=N)N)cc3)CC2)cc1` was tested, and the GI50 was > 100 µM and the TGI was > 100 µM.

In the case of `O=c1cc(-c2cccc(Cl)c2)[nH]c2ncccc12`, the TGI is reported as 54.8 µM.

With `Cc1cc(C)c(C2=NOC(c3ccccc3)(c3cc(=O)n(-c4ccccc4)s3)O2)c(C)c1` (centres undefined) the TGI was > 100 µM.

With `Cc1n[nH]c(=O)c2cc(-c3ccccc3)[nH]c12` the TGI was > 100 µM.

In the case of `CC1CCCc2c(C#N)c(N)nc(-c3ccc(Cl)cc3)c21` (centres undefined), the TGI is reported as 64.5 µM.

With `CN(C)c1ccc(C=C2C(=O)OC(C)(C)OC2=O)cc1Br` the TGI was > 100 µM.

For `COc1cccc(NC(=O)c2sc3nc4c(cc3c2N)CN(Cc2ccccc2)CC4)c1`, the GI50 was 25.2 µM and the TGI was > 100 µM.

For `CC12CCC(C(=O)OC1=O)C(C)(C)O2` (centres undefined), the TGI was > 100 µM.

With `N#CC(c1ccccc1)c1nc2ccc(=N)cc-2n(O)c1C(C#N)c1ccccc1` (centres undefined) the TGI was > 100 µM.

`Cn1c(/C=C(\O)c2ccc(Cl)cc2)nc2ccccc21` was tested, and the TGI was > 100 µM.

In the case of `COc1cccc(/C=C2/Sc3scc(-c4ccccc4)[n+]3C2=O)c1O`, the TGI is reported as > 100 µM.

`CCOC(=O)CSc1nc(-c2ccccc2)c(C#N)c(=O)[nH]1` was tested, and the TGI was > 100 µM.

`N/C(=N\N=C\c1ccc(-c2ccccc2)cc1)N[N+](=O)[O-]` was tested, and the GI50 was 8.02 µM and the TGI was > 100 µM.

`CC(C)CC(CC1=CCC2CC1C2(C)C)C1=C(O)C(C)(C)C(=O)C(C)(C)C1=O` (centres undefined) was tested, and the GI50 was 0.317 µM and the TGI was > 100 µM.

With `COC(=O)C1CC2(CCC1=O)Cc1ccccc1C2=O` (centres undefined) the TGI was > 100 µM.

In the case of `CCOC(=O)/C(C(=S)Nc1ccccc1)=C(/N)N1CCCC1`, the TGI is reported as > 100 µM.

For `CS(=O)(=O)Oc1cccc(/C=N/N=C(\N)NO)c1`, the TGI was > 100 µM.

`CC(=O)OC1C(O)COC(O[C@H]2CC[C@]34C[C@]35CC[C@]3(C)C([C@@]6(C)CC[C@@H](C(C)(C)O)O6)[C@@H](O)C[C@@]3(C)C5C[C@H](OC3OCC(O)C(O)C3O)[C@H]4C2(C)C)C1OC1OCC(O)C(O)C1O` (some centres undefined) was tested, and the TGI was > 100 µM.

With `Cc1sc(Cc2ccccc2)nc1-c1ccc(N)cc1` the TGI was > 100 µM.

With `CC1=C2C(=O)c3ccccc3C(=O)[C@H]2[C@H]2CCO[C@H]2O1` the TGI was > 100 µM.

With `O=C(c1ccccc1)C(CN1CCOCC1)c1ccccc1` (centres undefined) the GI50 was 12.6 µM and the TGI was 30.9 µM.

`CNC(=O)OCc1c(COC(=O)NC)c(C)n(-c2ccc(Br)cc2)c1C` was tested, and the TGI was 57 µM.

For `COc1ccc(C(OCC2OC(n3ccc(NC(=O)c4ccccc4)nc3=O)C(O)C2O)(c2ccccc2)c2ccccc2)cc1` (centres undefined), the TGI was 45.3 µM.

In the case of `O=C(C1CCCCC1)[C@@H]1[C@]2(C(=O)NC3CCCCC32)[C@@H]2CCCN2[C@@]12C(=O)NC1CCC(Cl)CC12` (some centres undefined), the GI50 is reported as 130 µM and the TGI is reported as 258 µM.

`O=c1oc2ccccc2c2c(=O)c3ccc(OC/C(=N/O)c4ccc(Cl)cc4)cc3oc12` showed a TGI of 23 µM.

For `CN(C)CCCN1c2ccccc2CCc2ccc(Cl)cc21`, the GI50 was 11.3 µM and the TGI was 23.9 µM.

For `CN(C)c1ccc2c(c1)Sc1cc(N(C)C)ccc1N2C(=O)c1ccccc1`, the GI50 was 30.5 µM and the TGI was > 100 µM.

In the case of `CC1=C(CCC(C)N(C)Cc2ccc(OCCCN3CCCC3)cc2)C(C)(C)CCC1` (centres undefined), the GI50 is reported as 5.7 µM and the TGI is reported as 20 µM.

For `Cc1ccccc1N=Nc1ccc(N=Nc2c(O)ccc3ccccc23)c(C)c1`, the TGI was > 100 µM.

For `CC1(CCC2C=CCC2)CCCNC1=S` (centres undefined), the TGI was > 10 µM.

`Cc1ccc(Oc2ccc(C)cc2[N+](=O)[O-])cc1` was tested, and the TGI was > 100 µM.

`Cc1ccc(-c2cc(-c3ccc(C)cc3)nc(NCCNc3ccnc4cc(Cl)ccc34)n2)cc1` gave a GI50 of 1.54 µM and a TGI of 3.01 µM.

Compound `CCOc1ccc2nc(NC(=O)c3c/c(=N\NC(=O)C[N+](C)(C)C)c4ccc(O)cc4o3)sc2c1` has a TGI of 23.8 µM.

With `COc1ccc(N=c2ssc3c(=S)ssc23)cc1` the TGI was > 100 µM.

For `C=C1CC[C@@H]2[C@](C)(COC(C)=O)[C@@H](O)CC[C@@]2(C)[C@@H]1COc1ccc2ccc(=O)oc2c1`, the GI50 was > 100 µM and the TGI was > 100 µM.

For `CN(C)c1ccc(/C=C\c2cccc[n+]2C)cc1`, the GI50 was 32.6 µM and the TGI was > 100 µM.

For `CC1CC[C@@H](C(C)C)[C@H](Oc2nnc(C3OC(CO)C(O)C3O)o2)C1` (some centres undefined), the TGI was > 100 µM.
